Data: the supplement of paper PMC9151546
Many values rest on one well or one pass, so single values are uncertain.

Assays:
[1] = test system: CHO-K1; assay: micronucleus frequency (% of nucleated events); higher = more micronuclei (genotoxic)
[2] = test system: CHO-K1; assay: hypodiploid nuclei frequency (% of nucleated events); higher = more hypodiploid events (aneugenic)
Protocol: (§1)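 Flow-cytometric in vitro micronucleus assay (Litron MicroFlow) in CHO-K1 cells in 96-well plates, 19 concentrations (4.5-200 µM, n=1 per concentration). Without S9, cells were exposed for 24 h and sampled at 48 h. With Aroclor 1254-induced rat liver S9, cells were exposed for 3-4 h and sampled at 27-28 h. Read-outs are %MN and %hypodiploid nuclei relative to nucleated events, and relative survival as the nuclei-to-bead ratio versus the 1% DMSO vehicle control (x100).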

[3] = test system: CHO-K1; assay: relative survival (nuclei to bead ratio vs DMSO control) (% of vehicle control); higher = more surviving cells
Protocol: as §1
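Wherever hypodiploid nuclei frequency (% of nucleated events) is given: hypodiploid nuclei gated on a flow cytometer with 488 nm excitation after SYTOX Green staining, cultures at 37 °C, positive controls vinblastine without S9 and cyclophosphamide with S9.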
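Wherever micronucleus frequency (% of nucleated events) is given: cells lysed with nuclei stained by SYTOX Green, then micronucleus-gated events counted against nucleated events by flow cytometry with 488 nm excitation.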
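Wherever relative survival (nuclei to bead ratio vs DMSO control) is given: Lysed-cell nuclei stained with SYTOX Green and counted against counting beads by flow cytometry at 488 nm excitation, with vinblastine (no S9) and cyclophosphamide (plus S9) as positive controls.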

COC(=O)CCCCC(=O)OC [Dimethyl adipate]
Conditions | hypodiploid nuclei frequency, [2] [%] | micronucleus frequency, [1] [%] | relative survival, [3]
concentration: 4.5 (µM), S9 metabolic activation: with S9, exposure time: 3-4 hours | 0.28 | 1.24 | 89.7
concentration: 4.5 (µM), S9 metabolic activation: without S9, exposure time: 24 hours | 0.84 | 1.86 | 135
concentration: 5.63 (µM), S9 metabolic activation: with S9, exposure time: 3-4 hours | 0.24 | 1.18 | 108
concentration: 5.63 (µM), S9 metabolic activation: without S9, exposure time: 24 hours | 0.64 | 2.16 | 139
concentration: 7.04 (µM), S9 metabolic activation: with S9, exposure time: 3-4 hours | 0.3 | 1 | 101
concentration: 7.04 (µM), S9 metabolic activation: without S9, exposure time: 24 hours | 0.46 | 1.26 | 137
concentration: 8.8 (µM), S9 metabolic activation: with S9, exposure time: 3-4 hours | 0.22 | 1.12 | 105
concentration: 8.8 (µM), S9 metabolic activation: without S9, exposure time: 24 hours | 0.64 | 2.84 | 153
concentration: 11 (µM), S9 metabolic activation: with S9, exposure time: 3-4 hours | 0.3 | 1.42 | 112
concentration: 11 (µM), S9 metabolic activation: without S9, exposure time: 24 hours | 0.48 | 2.5 | 157
concentration: 13.7 (µM), S9 metabolic activation: with S9, exposure time: 3-4 hours | 0.16 | 0.78 | 97
concentration: 13.7 (µM), S9 metabolic activation: without S9, exposure time: 24 hours | 0.6 | 2.26 | 113
concentration: 17.2 (µM), S9 metabolic activation: with S9, exposure time: 3-4 hours | 0.2 | 0.98 | 107
concentration: 17.2 (µM), S9 metabolic activation: without S9, exposure time: 24 hours | 0.64 | 2.5 | 135
concentration: 21.5 (µM), S9 metabolic activation: with S9, exposure time: 3-4 hours | 0.16 | 1.08 | 80.7
concentration: 21.5 (µM), S9 metabolic activation: without S9, exposure time: 24 hours | 0.8 | 2.52 | 111
concentration: 26.8 (µM), S9 metabolic activation: with S9, exposure time: 3-4 hours | 0.22 | 1.16 | 150
concentration: 26.8 (µM), S9 metabolic activation: without S9, exposure time: 24 hours | 0.74 | 3.34 | 97.8
concentration: 33.6 (µM), S9 metabolic activation: with S9, exposure time: 3-4 hours | 0.14 | 1.12 | 121
concentration: 33.6 (µM), S9 metabolic activation: without S9, exposure time: 24 hours | 0.72 | 2.06 | 107
concentration: 41.9 (µM), S9 metabolic activation: with S9, exposure time: 3-4 hours | 0.22 | 1.3 | 87.5
concentration: 41.9 (µM), S9 metabolic activation: without S9, exposure time: 24 hours | 0.62 | 1.76 | 106
concentration: 52.4 (µM), S9 metabolic activation: with S9, exposure time: 3-4 hours | 0.2 | 1.76 | 97.2
concentration: 52.4 (µM), S9 metabolic activation: without S9, exposure time: 24 hours | 0.46 | 1.44 | 86.2
concentration: 65.5 (µM), S9 metabolic activation: with S9, exposure time: 3-4 hours | 0.18 | 1.62 | 114
concentration: 65.5 (µM), S9 metabolic activation: without S9, exposure time: 24 hours | 1.2 | 1.58 | 102
concentration: 81.9 (µM), S9 metabolic activation: with S9, exposure time: 3-4 hours | 0.3 | 1.72 | 124
concentration: 81.9 (µM), S9 metabolic activation: without S9, exposure time: 24 hours | 0.84 | 2.16 | 92.7
concentration: 102 (µM), S9 metabolic activation: with S9, exposure time: 3-4 hours | 0.16 | 1.78 | 110
concentration: 102 (µM), S9 metabolic activation: without S9, exposure time: 24 hours | 0.86 | 1.84 | 107
concentration: 128 (µM), S9 metabolic activation: with S9, exposure time: 3-4 hours | 0.14 | 1.22 | 82.2
concentration: 128 (µM), S9 metabolic activation: without S9, exposure time: 24 hours | 1.22 | 2.46 | 73.6
concentration: 160 (µM), S9 metabolic activation: with S9, exposure time: 3-4 hours | 0.18 | 1.76 | 103
concentration: 160 (µM), S9 metabolic activation: without S9, exposure time: 24 hours | 1.1 | 3.8 | 101
concentration: 200 (µM), S9 metabolic activation: with S9, exposure time: 3-4 hours | 0.36 | 2.5 | 90.3
concentration: 200 (µM), S9 metabolic activation: without S9, exposure time: 24 hours | 1.5 | 3.36 | 78.5
